# The list shows a part of the results.
# Molecular target: no compound (DMSO)
# Assay: log2 fold change of degron read counts, EGFP-low vs EGFP+ sorted cells; higher = lower degron-EGFP level without compound (poor expression or instability)
# Conditions: compound: DMSO control; 18 h
# 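Note: jurkat cells carrying a lentiviral library of mutant zinc finger degrons fused to EGFP plus mCherry, mCherry+ cells FACS sorted, degron abundance counted by next-generation sequencing.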
row,Sequence,log2 fold change of degron read counts
1,FYCNVCGAVFTQKGNLLRHIKL,-0.544
2,FGCPICGAGFTQKGNLLRHIKL,0.421
3,FLCNICGAFFTQKGNLLRHIKL,0.494
4,FACNICGAMFTQKGNLLRHIKL,-0.703
5,FFCNVCGARFTQKGNLLRHIKL,-0.52
6,FACPICGAKFTQKGNLLRHIKL,-0.855
7,FRCPICGRDFTQKGNLLRHIKL,-0.687
8,FQCDVCGAEFTQKGNLLRHIKL,-2.72
9,LRCEICGFGCTQKGNLLRHIKL,-0.0919
10,FGCEQCGAKFTQKGNLLRHIKL,-1.2
11,FWCNQCGRVFTQKGNLLRHIKL,1.21
12,FWCEICGRWFTQKGNLLRHIKL,1.63
13,LICEICGFKCTQKGNLLRHIKL,-0.678
14,FMCEICGRGFTQKGNLLRHIKL,-1.46
15,FWCEICGHKFTQKGNLLRHIKL,-1.19
16,FVCDVCGACFTQKGNLLRHIKL,-1.58

row,Sequence,log2 fold change of degron read counts
1,FTCEVCGAQFTQKGNLLRHIKL,-2.34
2,FVCDVCGAGFTQKGNLLRHIKL,-1.45
3,FRCEVCGADFTQKGNLLRHIKL,-1.35
4,FACSVCGHTFTQKGNLLRHIKL,-0.566
5,LFCPICGFGCTQKGNLLRHIKL,1.4
6,FWCPQCGALFTQKGNLLRHIKL,1.13
7,FGCPICGAVFTQKGNLLRHIKL,-0.323
8,FMCNQCGHSFTQKGNLLRHIKL,-1.05
9,FACEICGASFTQKGNLLRHIKL,-1.57
10,FECEICGHCFTQKGNLLRHIKL,-1.46
11,LACPICGFYCTQKGNLLRHIKL,1.92
12,FICSVCGHNFTQKGNLLRHIKL,-0.958
13,FSCNVCGACFTQKGNLLRHIKL,-1.05
14,FICEVCGASFTQKGNLLRHIKL,-1.75
15,FMCEQCGATFTQKGNLLRHIKL,-1.71
16,FCCEVCGAHFTQKGNLLRHIKL,-1.52

# From the supplement of paper PMC12645437, “Orthogonal IMiD-Degron Pairs Induce Selective Protein Degradation in Cells” (ACS Chemical Biology, 2025)
